Hit rate of the full screen: of about 4,800 compounds, about 420 (8.8%) showed an effect of 50% or more. This is one part of the list.
Tested on: Plasmodium falciparum
Test: Confirmatory screen in NF54 nanoGlo assay, in single point, at 2uM, 72h
Type: functional, Erythrocyte
Details: timepoint 72 hour

SMILES	% Inhibition
COc1ccnc(CN2CCC[C@H](c3nc(-c4ccccc4)c[nH]3)C2)c1OC	67%
COc1ccccc1CC(=O)N(c1nc(C)cs1)C1CC1	-9%
O=S1(=O)C[C@H](N2CCN(c3ccccc3F)CC2)[C@@H](S(=O)(=O)c2ccccc2)C1	-7%
CCc1nnsc1C(=O)NC1CCCCCC1	0%
CC(C)c1nc(C(=O)Nc2[nH]c(=O)ncc2F)cs1	92%
Cn1ccnc1C1CC(NC(=O)c2cc3c(s2)CCC3)CCO1 (centres undefined)	0%
O=c1[nH]c2nccnc2c(=O)n1Cc1ccc(F)cc1	-11%
CCn1cc(CN2C(=O)C3CCCCC3C2=O)c(C)n1 (centres undefined)	-3%
CN1CC[C@H](CN(C)Cc2ccc3cc(O)ccc3c2)C1	9%
CC(C)(CNC(=O)[C@@H]1CCC(=O)N1)C1=CCCC1	7%
Clc1cccc(N2CCN(Cc3nc(-c4ccco4)no3)CC2)c1	-6%
C=C1CC2C(CC1OC(=O)NC(=O)CN1CCCCC1)C2(C)C (centres undefined)	-13%
Cc1sc2nc(-c3ccccn3)nc(NCC(=O)N3CCC(O)CC3)c2c1-c1ccccc1	23%
Cc1[nH]nc2c1C1(CCCCC1)CC(=O)N2	-13%
c1ccc(COc2nsnc2N2CCOCC2)cc1	-1%
Cc1c(Cl)c(-c2nnc(-c3cccc(C(F)(F)F)c3)o2)nn1C	-21%
CCC(=O)OCCN1CCN(CCN(C(=O)CC)c2ccc(C3CCCC3)cc2)CC1	3%
O=C(c1csc(C(=O)N2CCCC2)n1)N1CCN(Cc2ccccc2)CC1	-19%
Cc1[nH]c2ccccc2c1C1CCN(C(=O)c2ccccc2Br)CC1	1%
CN(CC(C)(CO)CO)c1ncc(-c2ccccc2)s1	-2%
O=C(Cc1ccccc1F)N1CC(n2cnnc2C2CCOCC2)C1	-14%
CCCN1CCC(NCc2ccc(-c3cccc(Cl)c3Cl)o2)CC1	65%
Cc1cccc(-n2c(=O)c3sccc3n(CC(=O)NCc3ccc(F)cc3F)c2=O)c1C	2%
CC(=O)Nc1ccccc1N(S(=O)(=O)c1ccc2ccccc2c1)S(=O)(=O)c1ccc2ccccc2c1	0%
CCc1cc(N2CCC(N3C(=O)[C@H]4CCCN4C3=O)CC2)ncn1	1%
O=C(c1ccoc1)N1CCC[C@H](C(=O)N2CCN(C(c3ccccc3)c3ccccc3)CC2)C1	-1%
Cc1nn(C)c(C)c1-c1cc(C(=O)Nc2cc(F)ccc2F)c2c(C)nn(C)c2n1	-5%
Cc1ccccc1-c1nc2cc(NS(=O)(=O)c3ccccc3)ccc2o1	2%
COc1ccc2oc(-c3ccc(CNC(=O)c4ccc(C)cc4)cc3)nc2c1	-3%

Reference: ChEMBL document CHEMBL4888484, “Replenishing the malaria drug discovery pipeline: Screening and hit evaluation of the MMV Hit Generation Library 1 (HGL1) against asexual blood stage Plasmodium falciparum ,using a nano luciferase reporter read-out” (2022)
